The whole screen tested about 150,000 compounds, of which about 540 (0.36%) showed an effect of 50% or more. The list shows a part of the results.

This assay concerns Plasmodium falciparum. Description: Primary screen in NF54 nanoGlo assay, in single point, at 2uM, 72h; a lower Z score goes with more inhibition. It is filed as functional, Erythrocyte. The settings on record: timepoint 72 hour.
For orientation: % Inhibition means the relative decrease from the control value, in per cent. Turning to `Cc1cccc(OCc2nc(C)c(C(=O)N[C@@H](C)c3cccs3)s2)c1`, the “% Inhibition” value is on record as -29% and the Z score is 2.55.

For the molecule `CCS(=O)(=O)N1CCN(C(=O)[C@@H](O)COc2ccccc2C)CC1`, the “% Inhibition” value was -3% and the Z score came out at 0.38.

In the case of `O=C(Cn1cc(Br)cn1)N[C@@H]1Cc2ccccc2[C@H]1O`, the “% Inhibition” value turned out to be 0% and the Z score is -0.08.

As for `COC(=O)C1=C(c2ccccc2)S/C(=C2/C(=S)C(C)(C)N(C(C)=O)c3ccccc32)S1`, the “% Inhibition” value is listed as -10% and the Z score was 1.3.

`CCC(CO)N1CCN(S(=O)(=O)C(C)CC(C)C)CC1` (stereo not given): the “% Inhibition” value is -6% and the Z score stood at 0.86.

Turning to `CC(C)C1N(C(=O)c2ccc(C(=O)N3CC(C)(C)C3C(C)C)nc2)CC1(C)C` (stereo not given), the “% Inhibition” value is reported as -4% and the Z score amounted to 0.39.

`Cc1occc1C(=O)Nc1cccc(N2CCCC2=O)c1`: the “% Inhibition” value is 5% and the Z score is given as -0.53.

Regarding `C#CCN(CC#CC)Cc1nnc(C)o1`, the “% Inhibition” value is given as -18% and the Z score was 2.16.

Turning to `C[C@@H](C(=O)Nc1ccc2c(c1)OCCO2)S(=O)(=O)Cc1nc(Cc2ccccc2)no1`, the “% Inhibition” value was -4% and the Z score is 0.6.

Turning to `C[C@H]1CCCCN1S(=O)(=O)c1ccc2c(cnc(=O)n2CC(=O)NCCc2ccccc2)c1`, the “% Inhibition” value is reported as 27% and the Z score is given as -3.03.

For `Cc1ncoc1C(=O)N1CC2(C[C@@H](c3nc(-c4ccncc4)no3)N(C)C2)C1`, the “% Inhibition” value is recorded as 7% and the Z score was -1.07.

As to `CC(=O)NC1CN(C(=O)N[C@@H](Cc2ccccc2)c2cccs2)C1`, the “% Inhibition” value is listed as -10% and the Z score is 1.78.

As to `C[C@@](O)(CNC(=O)c1ccno1)Cc1ccsc1`, the “% Inhibition” value is -22% and the Z score is recorded as 3.23.

As to `COc1cc(C)ccc1OCCON1C(=O)CCC1=O`, the “% Inhibition” value is on record as -2% and the Z score was 0.3.

For `C[C@@H](CNCC(C)(C)NS(C)(=O)=O)c1ccc(F)cc1`, the “% Inhibition” value is -16% and the Z score was 1.44.

As to `COc1ccccc1CCNC(=O)c1cccc(-n2ccnn2)c1`, the “% Inhibition” value is reported as 32% and the Z score is recorded as -3.64.

Take `Cc1[nH]c2ccccc2c1C1CCN(C(=O)c2ccccc2Br)CC1`: the “% Inhibition” value stood at 32% and the Z score was -0.57.

Take `COCCN1CCN(c2nc(-c3cccc(OC)c3)c3c(N)n(C)nc3n2)CC1`: the “% Inhibition” value is reported as -3% and the Z score is 0.32.

Turning to `CCOc1ccc(C(=O)NCC(=O)N2CCOCC[C@@H]2C)cc1`, the “% Inhibition” value is -5% and the Z score amounted to 0.87.

In the case of `NC(=O)CCn1cc(CNCCc2ccncc2)c2ccccc21`, the “% Inhibition” value is given as -22% and the Z score stood at 2.8.

Consider `CC(=O)Nc1ccc2c(c1)OCCOCCOc1ccc(NC(C)=O)cc1OCCO2`, for which the “% Inhibition” value is -8% and the Z score was found to be 1.09.

Take `Nc1nnc([C@@H]2CCOc3ccccc32)s1`: the “% Inhibition” value is reported as 1% and the Z score was -0.15.

Consider `C[C@H]1CCCCN1C(=O)c1csc(=O)[nH]1`, for which the “% Inhibition” value is listed as -3% and the Z score is recorded as 0.35.

Regarding `COc1ccnc(N(C)C2CCCCC2)n1`, the “% Inhibition” value came to 7% and the Z score is reported as -0.58.

In the case of `O=C(c1cc(C2CC2)on1)N1CC(n2ccnn2)C1`, the “% Inhibition” value is 0% and the Z score is on record as -0.02.

As to `Cc1cc(C(F)(F)F)n(C[C@@H](C)CNc2nnc(C)o2)n1`, the “% Inhibition” value is -31% and the Z score was found to be 2.72.

Take `C#CC(C)(C)N(C)S(=O)(=O)c1ccccc1OC(F)F`: the “% Inhibition” value is given as 0% and the Z score is listed as -0.04.

For `COc1ccc(CN2CCNC(=O)[C@@H]2CC(=O)N2CCCC2)c(F)c1`, the “% Inhibition” value was -10% and the Z score is given as 1.73.

For `COC(=O)C1CCN2C(=O)N(c3ccc(OCC(F)(F)F)cc3)C(=O)C2C1` (stereo not given), the “% Inhibition” value is given as -1% and the Z score amounted to 0.11.

As for `Cc1cc(C)c2c3ccccc3n(CCNC(=O)C(C)(C)C)c2n1`, the “% Inhibition” value is 27% and the Z score is -3.05.

Take `C[C@H]1COCCN1C(=O)NCc1ccc2c(c1)COC2`: the “% Inhibition” value is listed as -2% and the Z score is 0.3.

On to `Cc1ccc(-c2cc(CN(Cc3ccco3)C(=O)c3ccco3)no2)c(C)c1`, for which the “% Inhibition” value is recorded as 4% and the Z score was -0.52.

As to `CCc1ccc(C(=O)N2CCC(CN3CCN(C)C[C@@H]3C)CC2)cc1`, the “% Inhibition” value is -12% and the Z score stood at 1.34.

For `O=C(NCc1ccccn1)N(CCO)CCOCC(F)(F)F`, the “% Inhibition” value is given as -2% and the Z score was 0.43.

With `COc1ccc2c(c1)CCN2C(=O)C1CCCC(C(=O)O)C1` (stereo not given), the “% Inhibition” value was -13% and the Z score is recorded as 1.82.

In the case of `CCS(=O)(=O)N1CCC[C@H](C(=O)Nc2cnn3ccccc23)C1`, the “% Inhibition” value is on record as -8% and the Z score was 1.07.

For the molecule `O=C(Nc1cccc(Cl)c1)c1ccc(Nc2ccnc(-c3ccc(F)cc3)n2)cc1`, the “% Inhibition” value was 11% and the Z score is on record as -1.63.

For the molecule `CC1(C)CN(c2nnc([C@@H]3COCCO3)n2Cc2cccs2)CC(C)(C)O1`, the “% Inhibition” value was -3% and the Z score came out at 0.58.

Take `O=C1C[C@H](NCc2ncc[nH]2)CN1c1ccccc1`: the “% Inhibition” value is recorded as -6% and the Z score is given as 0.88.

`CN(C)c1cnn(CC(=O)NCCc2nccs2)c(=O)c1`: the “% Inhibition” value is -5% and the Z score worked out at 0.82.

Turning to `CC(C)(C)OC(=O)N1CCC(OCc2cccc(Br)c2)CC1`, the “% Inhibition” value is reported as -15% and the Z score was found to be 2.45.

Turning to `Cn1cccc1CCNC(=O)c1ccc(F)cc1`, the “% Inhibition” value turned out to be 31% and the Z score is recorded as -3.95.

`Cc1c(C(=O)N2CCOCC2)c(C(F)(F)F)nn1C1CCN(C)CC1`: the “% Inhibition” value is -7% and the Z score is recorded as 1.33.

Turning to `N#Cc1cccc(C2NC(=O)C3C4CCCC4CN23)c1` (stereo not given), the “% Inhibition” value is given as -7% and the Z score came to 1.18.

Regarding `Cc1nc(CN2CCN(C(=O)CC(C)C)[C@H]3CS(=O)(=O)C[C@H]32)co1`, the “% Inhibition” value is -23% and the Z score worked out at 2.3.

Consider `Cc1ncsc1C(=O)N[C@H]1CCN(c2ccc(Cl)cc2)C1`, for which the “% Inhibition” value is on record as 2% and the Z score is -0.25.

As to `O=C(NCC1CC1)[C@@H]1CCCCC(=O)N1Cc1ccccc1`, the “% Inhibition” value is recorded as -6% and the Z score stood at 0.92.

In the case of `COC(=O)CNC(=O)C1CCCC(C(=O)NCC(=O)OC)C1` (stereo not given), the “% Inhibition” value is listed as -36% and the Z score was found to be 4.21.

On to `CC12CC(CN1C(=O)NCC1CCN(Cc3ccncc3)CC1)C2`, for which the “% Inhibition” value was 6% and the Z score is listed as -0.96.

As for `COc1ccc(N2C[C@@H](C(=O)N3CCOCC3)CC2=O)cc1`, the “% Inhibition” value is reported as 14% and the Z score is on record as -1.86.

Regarding `Cc1noc(CCN2C(=O)c3ccccc3C2=O)n1`, the “% Inhibition” value is -5% and the Z score is recorded as 0.55.

In the case of `CN(C)c1ccc(NC(=O)c2cccnc2O)cn1`, the “% Inhibition” value was -20% and the Z score worked out at 3.06.

Turning to `NC(=O)[C@@H]1CCCN1c1ccc(-c2nc(-c3ccccc3F)no2)cn1`, the “% Inhibition” value amounted to 10% and the Z score was -1.32.

On to `Cn1ccnc1CNC(=O)NCCCc1ccc(Cl)cc1Cl`, for which the “% Inhibition” value was 10% and the Z score was -1.33.

Regarding `CCC(CC)n1ncc(C)c1NC(=O)[C@H]1C(C)=C1c1ccccc1`, the “% Inhibition” value is -6% and the Z score amounted to 1.24.

The values are drawn from ChEMBL document CHEMBL4888484, “Replenishing the malaria drug discovery pipeline: Screening and hit evaluation of the MMV Hit Generation Library 1 (HGL1) against asexual blood stage Plasmodium falciparum ,using a nano luciferase reporter read-out” (2022).
